# Reference: publication PMC4076210, “Discovery of Novel AKT Inhibitors with Enhanced Anti-Tumor Effects in Combination with the MEK Inhibitor” (PLoS ONE, 2014)
# Legend:
# PKCδ = PKCδ (Homo sapiens, UniProt Q05655); assay: Kinase IC50 assay; assay type: biochemical
# MINK(h) = target: T1, MINK(h) (Homo sapiens, UniProt Q8N4C8); assay: Kinase panel; assay type: biochemical
# T1 construct: purchased Millipore KinaseProfiler
# MAPK2(m) = target: T2, MAPK2(m) (Mus musculus, UniProt P63085); assay: Kinase panel; assay type: biochemical
# T2 construct: purchased Millipore KinaseProfiler
# [1] = system: phospho-PRAS40 in BT474 tumor xenografts; assay: In vivo time course pharmacodynamic assay (phospho-PRAS40 ELISA); design: species or system mouse
# Method: The pharmacodynamic studies were carried out in SCID mice bearing BT474 tumor xenografts. […] Protein lysates were prepared and the phospho-PRAS40 ELISA was performed on tumor samples according to the methods described in the main text. Concentration of the test compounds was analysed by HPLC/MS/MS analysis.
# BTK(R28H)(h) = target: T3, BTK(R28H)(h) (Homo sapiens, UniProt Q06187, R28H); assay: Kinase panel; assay type: biochemical
# T3 construct: purchased Millipore KinaseProfiler
# DCAMKL2(h) = target: T4, DCAMKL2(h) (Homo sapiens, UniProt Q8N568); assay: Kinase panel; assay type: biochemical
# T4 construct: purchased Millipore KinaseProfiler
# T4 sequence (Q8N568 1-766): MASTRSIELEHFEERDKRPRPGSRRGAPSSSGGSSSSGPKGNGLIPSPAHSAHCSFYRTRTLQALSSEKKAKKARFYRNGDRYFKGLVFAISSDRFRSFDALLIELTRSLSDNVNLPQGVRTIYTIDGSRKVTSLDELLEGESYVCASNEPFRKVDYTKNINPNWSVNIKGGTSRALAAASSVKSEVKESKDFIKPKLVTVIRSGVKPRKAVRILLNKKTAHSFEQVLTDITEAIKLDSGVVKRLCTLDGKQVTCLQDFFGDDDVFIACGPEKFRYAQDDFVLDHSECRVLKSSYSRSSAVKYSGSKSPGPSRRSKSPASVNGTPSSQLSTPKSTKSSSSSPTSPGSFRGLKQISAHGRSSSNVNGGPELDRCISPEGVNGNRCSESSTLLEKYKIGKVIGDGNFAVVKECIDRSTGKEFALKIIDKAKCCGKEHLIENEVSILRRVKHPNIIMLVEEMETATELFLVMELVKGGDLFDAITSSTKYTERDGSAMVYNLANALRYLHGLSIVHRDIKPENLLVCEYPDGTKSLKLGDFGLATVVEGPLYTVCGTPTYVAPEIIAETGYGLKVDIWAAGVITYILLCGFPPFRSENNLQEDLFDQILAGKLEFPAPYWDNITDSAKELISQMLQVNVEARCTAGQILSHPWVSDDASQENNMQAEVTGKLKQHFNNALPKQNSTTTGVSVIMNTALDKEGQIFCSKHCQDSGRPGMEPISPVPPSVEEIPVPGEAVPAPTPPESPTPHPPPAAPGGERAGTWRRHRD
# CK1γ2(h) = target: T5, CK1γ2(h) (Homo sapiens, UniProt P78368); assay: Kinase panel; assay type: biochemical
# T5 construct: purchased Millipore KinaseProfiler
# BT474 tumor xenografts = assay: Xenograft tumor growth inhibition; assay type: in vivo, mouse; conditions: for maximal inhibition of BT474 tumor growth: 30 mg/kg GSK2110183 and 100 mg/kg GSK2141795 over 3 weeks (as printed in discussion)
# Method: (§1) Tumors were initiated by injecting either cells (SKOV3, CAPAN-2 and HPAC) or a tumor fragments (BT474) subcutaneously into 6–8 week female athymic nude (SKOV3) and SCID (all others) mice. Once tumors reached between 120 and 300 mm^3, mice were randomized according to tumor volume into groups of n = 7–10 mice per treatment. GSK2110183 and GSK2141795 were administered daily at various doses by oral gavage. In combination experiments, GSK1120212 was also administered daily by oral gavage. Tumor volumes and body weight were measured twice weekly, tumor volume was measured with calipers and calculated using equation: […]. Results are represented as percent inhibition on completion of dosing = 100 x [1- average growth of drug-treated population/average growth of vehicle-treated control population].
# SKOV3 tumor xenografts = assay: Xenograft tumor growth inhibition; assay type: in vivo, mouse
# Method: as §1
# Rsk4(h) = target: T6, Rsk4(h) (Homo sapiens, UniProt Q9UK32); assay: Kinase panel; assay type: biochemical
# T6 construct: purchased Millipore KinaseProfiler
# ROCK-II(h) = target: T7, ROCK-II(h) (Homo sapiens, UniProt O75116); assay: Kinase panel; assay type: biochemical
# T7 construct: purchased Millipore KinaseProfiler
# CHK2(R145W)(h) = target: T8, CHK2(R145W)(h) (Homo sapiens, UniProt O96017, R145W); assay: Kinase panel; assay type: biochemical
# T8 construct: purchased Millipore KinaseProfiler
# Pim-1(h) = target: T9, Pim-1(h) (Homo sapiens, UniProt P11309); assay: Kinase panel; assay type: biochemical
# T9 construct: purchased Millipore KinaseProfiler
# Lyn(m) = target: T10, Lyn(m) (Mus musculus, UniProt P25911); assay: Kinase panel; assay type: biochemical
# T10 construct: purchased Millipore KinaseProfiler
# [2] = 10 mg/kg oral daily, 20-21 days
# T1 sequence (Q8N4C8 whole entry): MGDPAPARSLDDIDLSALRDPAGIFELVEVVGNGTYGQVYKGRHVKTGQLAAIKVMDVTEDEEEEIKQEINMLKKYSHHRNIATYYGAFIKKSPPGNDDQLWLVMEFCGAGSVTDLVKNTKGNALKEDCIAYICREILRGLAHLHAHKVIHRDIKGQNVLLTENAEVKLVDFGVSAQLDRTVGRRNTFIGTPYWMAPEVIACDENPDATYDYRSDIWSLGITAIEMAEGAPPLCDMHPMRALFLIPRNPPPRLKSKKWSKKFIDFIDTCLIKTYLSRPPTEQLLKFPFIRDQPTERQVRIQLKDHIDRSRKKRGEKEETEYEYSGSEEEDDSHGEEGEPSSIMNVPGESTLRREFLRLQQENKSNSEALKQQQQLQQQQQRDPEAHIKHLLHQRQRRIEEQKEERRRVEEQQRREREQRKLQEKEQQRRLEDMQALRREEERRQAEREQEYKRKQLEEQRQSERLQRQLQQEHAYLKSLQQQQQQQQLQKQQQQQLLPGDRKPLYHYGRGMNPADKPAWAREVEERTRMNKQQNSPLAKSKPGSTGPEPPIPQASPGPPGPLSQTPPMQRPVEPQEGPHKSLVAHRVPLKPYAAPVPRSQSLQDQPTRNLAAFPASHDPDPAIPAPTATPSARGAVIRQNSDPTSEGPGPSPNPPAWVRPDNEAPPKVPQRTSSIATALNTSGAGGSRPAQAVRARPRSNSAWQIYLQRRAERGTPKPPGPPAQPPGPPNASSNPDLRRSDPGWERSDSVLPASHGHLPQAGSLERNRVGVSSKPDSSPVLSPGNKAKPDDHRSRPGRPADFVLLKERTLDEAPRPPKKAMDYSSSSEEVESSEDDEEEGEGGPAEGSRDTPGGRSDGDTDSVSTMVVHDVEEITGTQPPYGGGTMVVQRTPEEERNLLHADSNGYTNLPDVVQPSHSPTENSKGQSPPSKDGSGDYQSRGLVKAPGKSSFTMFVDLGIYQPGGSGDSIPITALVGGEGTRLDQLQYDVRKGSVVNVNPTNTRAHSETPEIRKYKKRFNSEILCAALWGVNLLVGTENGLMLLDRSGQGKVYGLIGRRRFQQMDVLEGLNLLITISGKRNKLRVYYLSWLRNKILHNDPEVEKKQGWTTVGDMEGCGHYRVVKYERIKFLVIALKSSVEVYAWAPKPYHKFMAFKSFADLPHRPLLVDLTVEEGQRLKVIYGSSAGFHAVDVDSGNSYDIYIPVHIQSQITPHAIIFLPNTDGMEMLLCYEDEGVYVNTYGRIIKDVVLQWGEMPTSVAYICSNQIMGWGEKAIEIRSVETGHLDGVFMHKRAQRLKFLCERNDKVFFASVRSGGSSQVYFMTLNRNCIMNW
# T7 sequence (O75116 whole entry): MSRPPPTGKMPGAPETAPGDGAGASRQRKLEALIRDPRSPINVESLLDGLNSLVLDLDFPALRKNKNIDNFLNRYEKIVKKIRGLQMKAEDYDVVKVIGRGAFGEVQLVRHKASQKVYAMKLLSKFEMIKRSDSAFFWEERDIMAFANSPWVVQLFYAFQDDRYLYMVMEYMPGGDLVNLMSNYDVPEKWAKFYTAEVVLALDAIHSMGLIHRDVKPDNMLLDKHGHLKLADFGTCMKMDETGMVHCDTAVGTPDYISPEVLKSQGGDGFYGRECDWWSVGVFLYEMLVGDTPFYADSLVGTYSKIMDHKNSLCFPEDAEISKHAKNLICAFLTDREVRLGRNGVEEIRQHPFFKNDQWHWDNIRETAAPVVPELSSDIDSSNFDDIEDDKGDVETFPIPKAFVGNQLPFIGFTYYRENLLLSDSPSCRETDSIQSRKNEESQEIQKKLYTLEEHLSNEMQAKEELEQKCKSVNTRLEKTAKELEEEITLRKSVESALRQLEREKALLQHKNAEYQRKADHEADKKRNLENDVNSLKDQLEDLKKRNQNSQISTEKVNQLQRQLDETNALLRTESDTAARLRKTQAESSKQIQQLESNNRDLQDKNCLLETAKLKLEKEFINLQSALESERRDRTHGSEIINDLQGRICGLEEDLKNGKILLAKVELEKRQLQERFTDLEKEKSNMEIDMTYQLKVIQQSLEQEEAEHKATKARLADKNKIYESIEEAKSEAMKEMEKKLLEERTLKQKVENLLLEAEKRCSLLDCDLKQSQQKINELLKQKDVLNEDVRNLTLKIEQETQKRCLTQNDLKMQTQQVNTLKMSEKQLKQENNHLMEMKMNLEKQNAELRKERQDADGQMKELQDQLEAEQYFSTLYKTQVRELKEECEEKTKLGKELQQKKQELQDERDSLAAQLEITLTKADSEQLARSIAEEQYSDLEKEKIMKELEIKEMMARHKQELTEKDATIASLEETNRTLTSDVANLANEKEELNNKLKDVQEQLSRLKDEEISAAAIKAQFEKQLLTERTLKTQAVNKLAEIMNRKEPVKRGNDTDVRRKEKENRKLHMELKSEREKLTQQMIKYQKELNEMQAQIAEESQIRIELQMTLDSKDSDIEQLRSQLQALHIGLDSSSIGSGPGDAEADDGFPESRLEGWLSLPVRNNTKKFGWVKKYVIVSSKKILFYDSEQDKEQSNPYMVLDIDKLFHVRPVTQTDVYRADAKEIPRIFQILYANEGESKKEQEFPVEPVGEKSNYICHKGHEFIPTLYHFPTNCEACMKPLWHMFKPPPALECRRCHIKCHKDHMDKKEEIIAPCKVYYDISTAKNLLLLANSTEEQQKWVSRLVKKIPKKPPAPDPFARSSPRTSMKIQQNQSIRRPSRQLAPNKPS
# T6 sequence (Q9UK32 whole entry): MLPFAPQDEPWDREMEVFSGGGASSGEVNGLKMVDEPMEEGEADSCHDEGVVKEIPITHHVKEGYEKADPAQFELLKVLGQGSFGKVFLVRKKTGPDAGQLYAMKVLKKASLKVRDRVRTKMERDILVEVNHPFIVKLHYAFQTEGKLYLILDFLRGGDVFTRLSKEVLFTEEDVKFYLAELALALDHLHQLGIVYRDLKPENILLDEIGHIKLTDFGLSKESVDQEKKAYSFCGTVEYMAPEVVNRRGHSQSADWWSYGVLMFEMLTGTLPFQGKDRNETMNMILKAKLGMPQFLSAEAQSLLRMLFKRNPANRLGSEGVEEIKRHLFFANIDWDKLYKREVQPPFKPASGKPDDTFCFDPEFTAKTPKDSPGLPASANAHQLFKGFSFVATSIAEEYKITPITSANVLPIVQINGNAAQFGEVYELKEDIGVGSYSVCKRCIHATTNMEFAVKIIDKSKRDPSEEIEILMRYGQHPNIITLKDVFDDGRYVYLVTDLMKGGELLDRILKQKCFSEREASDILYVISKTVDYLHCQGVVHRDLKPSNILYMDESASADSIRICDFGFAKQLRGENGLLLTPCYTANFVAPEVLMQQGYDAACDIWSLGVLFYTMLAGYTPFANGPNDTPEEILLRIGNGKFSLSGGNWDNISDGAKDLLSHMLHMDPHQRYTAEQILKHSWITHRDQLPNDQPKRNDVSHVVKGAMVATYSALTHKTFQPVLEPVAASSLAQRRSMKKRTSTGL
# T5 sequence (P78368 whole entry): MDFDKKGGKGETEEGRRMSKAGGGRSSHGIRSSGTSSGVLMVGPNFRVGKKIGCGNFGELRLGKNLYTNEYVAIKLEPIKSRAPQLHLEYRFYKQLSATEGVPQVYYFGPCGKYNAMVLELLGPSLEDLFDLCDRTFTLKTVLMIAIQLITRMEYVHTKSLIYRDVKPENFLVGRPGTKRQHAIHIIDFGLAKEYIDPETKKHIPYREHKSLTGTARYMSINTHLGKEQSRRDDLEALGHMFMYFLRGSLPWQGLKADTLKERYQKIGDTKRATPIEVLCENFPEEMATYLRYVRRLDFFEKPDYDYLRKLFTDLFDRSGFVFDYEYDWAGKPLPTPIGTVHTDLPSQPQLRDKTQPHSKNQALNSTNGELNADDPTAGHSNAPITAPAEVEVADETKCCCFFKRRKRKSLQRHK
# T9 sequence (P11309 whole entry): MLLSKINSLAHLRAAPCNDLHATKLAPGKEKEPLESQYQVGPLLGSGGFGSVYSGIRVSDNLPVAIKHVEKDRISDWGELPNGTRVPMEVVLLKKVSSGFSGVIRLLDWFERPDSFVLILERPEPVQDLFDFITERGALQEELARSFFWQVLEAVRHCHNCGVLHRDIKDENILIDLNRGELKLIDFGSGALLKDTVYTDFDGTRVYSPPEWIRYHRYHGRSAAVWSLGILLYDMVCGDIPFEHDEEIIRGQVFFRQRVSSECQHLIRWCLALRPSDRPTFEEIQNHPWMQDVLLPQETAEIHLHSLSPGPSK
# Chain of UniProt Q05655 (Q05655 whole entry): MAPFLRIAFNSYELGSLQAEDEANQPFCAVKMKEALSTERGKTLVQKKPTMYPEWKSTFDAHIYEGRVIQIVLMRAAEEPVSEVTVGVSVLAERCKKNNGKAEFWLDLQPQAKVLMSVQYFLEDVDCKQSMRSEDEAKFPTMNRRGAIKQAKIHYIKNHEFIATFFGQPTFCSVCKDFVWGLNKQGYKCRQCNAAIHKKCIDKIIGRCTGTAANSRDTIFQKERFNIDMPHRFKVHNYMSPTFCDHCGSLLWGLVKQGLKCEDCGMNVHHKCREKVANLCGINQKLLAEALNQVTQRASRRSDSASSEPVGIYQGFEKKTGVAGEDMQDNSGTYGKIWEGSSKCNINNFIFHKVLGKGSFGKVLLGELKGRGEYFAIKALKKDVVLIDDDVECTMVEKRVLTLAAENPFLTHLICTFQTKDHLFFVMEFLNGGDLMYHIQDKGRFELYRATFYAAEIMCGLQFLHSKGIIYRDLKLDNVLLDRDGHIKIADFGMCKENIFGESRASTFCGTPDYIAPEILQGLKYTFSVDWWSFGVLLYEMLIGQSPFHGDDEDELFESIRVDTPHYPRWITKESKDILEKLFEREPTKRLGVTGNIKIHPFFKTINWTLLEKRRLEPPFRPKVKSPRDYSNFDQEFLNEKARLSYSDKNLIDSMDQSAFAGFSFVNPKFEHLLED
structure (smiles),measurement,setting,value
Cn1ncc(Cl)c1-c1cc(C(=O)N[C@H](CN)Cc2ccc(F)c(F)c2)oc1Cl [GSK2141795],IC50,PKCδ,69 nM
same,inhibition at 0.5 µM,"MINK(h); 0.5 µM, read-out: % Inhibition",-5%
same,inhibition at 10 µM,"MINK(h); 10 µM, read-out: % Inhibition",3%
same,inhibition at 0.5 µM,"MAPK2(m); 0.5 µM, read-out: % Inhibition",1%
same,inhibition at 10 µM,"MAPK2(m); 10 µM, read-out: % Inhibition",47%
same,time for phospho-PRAS40 levels to return to baseline,[1]; 30 mg/kg QDx7,≤ 48 h
same,"inhibition of phospho-PRAS40, time course","[1]; 30 mg/kg QDx7, maintained for 8 h",60%
same,inhibition at 0.5 µM,"BTK(R28H)(h); 0.5 µM, read-out: % Inhibition",2%
same,inhibition at 10 µM,"BTK(R28H)(h); 10 µM, read-out: % Inhibition",-5%
same,inhibition at 0.5 µM,"DCAMKL2(h); 0.5 µM, read-out: % Inhibition",29%
same,inhibition at 10 µM,"DCAMKL2(h); 10 µM, read-out: % Inhibition",81%
same,inhibition at 0.5 µM,"CK1γ2(h); 0.5 µM, read-out: % Inhibition",5%
same,inhibition at 10 µM,"CK1γ2(h); 10 µM, read-out: % Inhibition",64%
same,tumor growth inhibition (TGI),BT474 tumor xenografts; [2],28%
same,tumor growth inhibition (TGI),"BT474 tumor xenografts; 20 mg/kg oral daily, 20 days (QDx21)",57%
same,maximal inhibition of BT474 tumor growth,BT474 tumor xenografts,98%
same,tumor growth inhibition (TGI),"BT474 tumor xenografts; 30 mg/kg oral daily, 20-21 days",98%
same,body weight loss,"BT474 tumor xenografts; 10, 20 and 30 mg/kg, day 6 of dosing, recovered by end of study",3–8%
same,tumor growth inhibition (TGI),SKOV3 tumor xenografts; 10 mg/kg QD (QDx21),73%
same,tumor growth inhibition (TGI),SKOV3 tumor xenografts; 20 mg/kg QD (QDx21),85%
same,"TGI, SKOV3 tumor xenograft",SKOV3 tumor xenografts; 30 mg/kg GSK2110183 and 100 mg/kg GSK2141795 (as printed in discussion),93%
same,tumor growth inhibition (TGI),SKOV3 tumor xenografts; 30 mg/kg QD (QDx21),93%
same,inhibition at 0.5 µM,"Rsk4(h); 0.5 µM, read-out: % Inhibition",18%
same,inhibition at 10 µM,"Rsk4(h); 10 µM, read-out: % Inhibition",65%
same,inhibition at 0.5 µM,"ROCK-II(h); 0.5 µM, read-out: % Inhibition",70%
same,inhibition at 10 µM,"ROCK-II(h); 10 µM, read-out: % Inhibition",95%
same,inhibition at 0.5 µM,"CHK2(R145W)(h); 0.5 µM, read-out: % Inhibition",56%
same,inhibition at 10 µM,"CHK2(R145W)(h); 10 µM, read-out: % Inhibition",90%
same,inhibition at 0.5 µM,"Pim-1(h); 0.5 µM, read-out: % Inhibition",15%
same,inhibition at 10 µM,"Pim-1(h); 10 µM, read-out: % Inhibition",47%
same,inhibition at 0.5 µM,"Lyn(m); 0.5 µM, read-out: % Inhibition",8%
same,inhibition at 10 µM,"Lyn(m); 10 µM, read-out: % Inhibition",44%
Cn1ncc(Cl)c1-c1cc(C(=O)N[C@H](CN)Cc2cccc(F)c2)sc1Cl [GSK2110183],IC50,PKCδ,1000 nM
same,inhibition at 0.5 µM,MINK(h),6%
same,inhibition at 10 µM,MINK(h),8%
same,inhibition at 0.5 µM,MAPK2(m),6%
same,inhibition at 10 µM,MAPK2(m),12%
same,time for phospho-PRAS40 levels to return to baseline,[1]; 100 mg/kg QDx7,≤ 48 h
same,"inhibition of phospho-PRAS40, time course","[1]; 100 mg/kg QDx7, sustained for 24 h",60%
same,inhibition at 0.5 µM,BTK(R28H)(h),-10%
same,inhibition at 10 µM,BTK(R28H)(h),0%
same,inhibition at 0.5 µM,DCAMKL2(h),14%
same,inhibition at 10 µM,DCAMKL2(h),61%
same,inhibition at 0.5 µM,CK1γ2(h),-2%
same,inhibition at 10 µM,CK1γ2(h),41%
same,tumor growth inhibition (TGI),BT474 tumor xenografts; [2],8%
same,maximal inhibition of BT474 tumor growth,BT474 tumor xenografts,61%
same,body weight loss,"BT474 tumor xenografts; 10, 30 or 100 mg/kg, after 5 days of dosing, recovered",1–3%
same,tumor growth inhibition (TGI),SKOV3 tumor xenografts; 10 mg/kg QD (QDx21),23%
same,tumor growth inhibition (TGI),SKOV3 tumor xenografts; 100 mg/kg QD (QDx21),97%
same,inhibition at 0.5 µM,Rsk4(h),34%
same,inhibition at 10 µM,Rsk4(h),71%
same,inhibition at 0.5 µM,ROCK-II(h),76%
same,inhibition at 10 µM,ROCK-II(h),96%
same,inhibition at 0.5 µM,CHK2(R145W)(h),42%
same,inhibition at 10 µM,CHK2(R145W)(h),101%
same,inhibition at 0.5 µM,Pim-1(h),-8%
same,inhibition at 10 µM,Pim-1(h),93%
same,inhibition at 0.5 µM,Lyn(m),-2%
same,inhibition at 10 µM,Lyn(m),20%

# Like-named read-outs stand apart in the source and are kept apart here.
